# Test results: PubChem BioAssay AID1347417 (National Center for Advancing Translational Sciences (NCATS), 2020)
# Among all 120,000 compounds or so, about 5,300 (4.4%) were called active. The shares of active, inactive and inconclusive entries below differ from those in the screen. The call rests on the fitted dose curve; in most records, active means well fitted inhibition curve with a large enough effect; inconclusive means small, poorly fitted or top-dose-only effect; inactive means no such curve, though single readings can be large or run the other way. Potencies of inconclusive entries are doubtful fits and often do not repeat.
# Assay: qHTS Primary assay for Inhibitors of Plasmodium falciparum Dd2 growth in vitro; further: nearly all actives have a fitted effect of over 65% in size
# Conditions: P. falciparum Dd2 growth, SYBR Green, 72 h; series mostly up to 28.9 µM
# Outline: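 Readout: SYBR Green fluorescence, 485 nm excitation, 535 nm emission, after ~16 h lysis at 37C. Before that, Dd2-infected red cells (2.5% hematocrit) grew 72 h with compound, 29 uM top final concentration.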
# Potency means the concentration at half of the fitted maximal effect; tags describe the fitted curve by direction and shape.
row,SMILES,Potency
1,COCC1CN(C(C)=O)CC12CCN(C(=O)NCc1ccccc1)CC2 (stereo not given),inactive
2,Cc1nnc2n1CCC(N(C)C(=O)Cc1ccsc1)CC2 (stereo not given),inactive
3,CCC1=Nc2cc(C(=O)NC3CCC(C)CC3)ccc2Sc2ccc(C)cc21 (stereo not given),active: 10 µM
4,O=C(N[C@@H]1CCC[C@@H]1C(=O)N1CCN(c2cccc(Cl)c2)CC1)c1ccncc1,"inconclusive: 17.8 µM [inhibitor, single point]"
5,COc1ccc(CCC(=O)N2CCC3(CC2)CC(Cc2nc(-c4cnccn4)no2)CCO3)cc1 (stereo not given),inactive
6,Cc1ccccc1CNC[C@H]1O[C@@H]2C[C@@H](CC(=O)N3CCOCC3)O[C@@H]2[C@@H]1O,inactive
7,COc1ccc(Nc2nc(N)nc(N)c2S(=O)(=O)c2ccccc2)cc1,"inconclusive: 11.2 µM [inhibitor, partial curve, poor fit]"
8,CC(C)CCN1C(=O)CC[C@]2(C(=O)N3CCN(CC(C)C)CC3)CCCC[C@@H]12,"inconclusive: 3.55 µM [inhibitor, single point]"
9,Cc1c(Cl)cccc1NC(=O)c1cc2n(n1)CC(c1ccc(Cl)cc1)OC2 (stereo not given),inactive
10,CN(C(=O)CCc1ccc2c(c1)OCO2)C1CCCN(C2Cc3ccccc3C2)C1 (stereo not given),"inconclusive: 17.8 µM [inhibitor, single point]"
11,CCc1cc(=O)n(CC(=O)Nc2ccccc2OC)c(-c2ccccc2)n1,"inconclusive: 2 µM [inhibitor, full curve, poor fit]"
12,COc1ccc(Cn2c(=O)[nH]c3cccnc32)cc1,"inconclusive: 12.6 µM [inhibitor, partial curve, poor fit]"
13,COc1ccc(NC(=O)c2c(NCc3sccc3C)sc3c2CCCC3)c(OC)c1,"inconclusive: 6.31 µM [inhibitor, partial curve, poor fit]"
14,O=C(c1ccc(-c2cccc(O)c2)nc1)N1CCC(CCc2ccccc2)CC1,"inconclusive: 7.94 µM [inhibitor, partial curve, poor fit]"
15,CCCOc1ccc(CN(C(=O)Cc2coc3ccc(CC)cc23)C2CCS(=O)(=O)C2)cc1 (stereo not given),"inconclusive: 10 µM [inhibitor, single point]"
16,COc1cccc(-n2cc(CN(C)Cc3cn(-c4ccccc4)nn3)cn2)c1,"inconclusive: 7.94 µM [inhibitor, partial curve, poor fit]"
17,CCCn1c(=O)sc2cc(NC(=O)c3ccc(OC)c(Br)c3)ccc21,"inconclusive: 10 µM [inhibitor, single point]"
18,CC(C)(C)OC(=O)N1CCC(c2c(C(=O)NC3CCN(Cc4ccccc4)CC3)cnn2-c2ccc(F)cc2F)CC1,active: 11.2 µM
19,CCC(CC)c1cc([C@H]2CN3CC[C@H]2C[C@@H]3CNC2CCN(C)CC2)nc(-c2ccncc2)n1,active: 1.41 µM
20,CCC1=C(C(=O)OC)C(c2cccc(OC)c2)N2C(CC(=O)N3CCC(C)CC3)=CSC2=N1 (stereo not given),"inconclusive: 0.501 µM [inhibitor, full curve, poor fit]"
21,Cc1ccc(NC(=O)C2CCCN(S(=O)(=O)c3ccc4c(c3)oc(=O)n4C)C2)cc1Cl (stereo not given),"inconclusive: 11.2 µM [inhibitor, single point]"
22,Cc1cc(Cl)ccc1S(=O)(=O)NCCn1c(C)cnc1C1CCC1,active: 6.31 µM

row,SMILES,Potency
1,CC(=O)NC1(C)CCCN(Cc2cccc(-c3c(C)noc3C)c2)C1 (stereo not given),"inconclusive: 22.4 µM [inhibitor, single point]"
2,O=c1c2ccccc2n(Cc2ccccc2Cl)c(=O)n1CCc1ccccc1,"inconclusive: 17.8 µM [inhibitor, single point]"
3,COC(=O)[C@@H]1C[C@H](NC(=O)c2cc(OC)nc(OC)n2)CN1C,"inconclusive: 20 µM [inhibitor, single point]"
4,O=C(Nc1nc2c(s1)CCCCCC2)Nc1ccc(F)cc1F,"inconclusive: 12.6 µM [inhibitor, single point]"
5,CCO[C@H]1CN(C(=O)c2ccc(-c3noc(C4CC4)n3)cc2)C[C@@H]1O,inactive
6,COC(=O)c1ccc(CN2C(=O)[C@@H]3C[C@@H](O)CN3C3(CN(Cc4ccc(F)cc4)C3)C2=O)cc1,"inconclusive: 1.41 µM [inhibitor, full curve]"
7,Cc1ccccc1C(=O)Nc1ccc([C@H]2OCC(=O)N(Cc3ccncc3)[C@@H]2CO)cc1,inactive
8,CCC(=O)N1CCC(Cc2ncc(C)n2CC2CC2)CC1,"inconclusive: 4.47 µM [inhibitor, partial curve]"
9,CCOc1ccccc1NC(=O)Cn1ncc2c(=O)oc3ccc(C)cc3c21,inactive
10,CC(=O)NC1(C)CCCN(Cc2cc(-c3cccc(N(C)C)c3)cs2)C1 (stereo not given),"inconclusive: 12.6 µM [inhibitor, single point]"
11,CCCN1CCCn2nc(CNC(=O)c3ccc(OC)nc3OC)cc2C1,inactive
12,Cc1ncoc1C(=O)NCC1Cn2cccc2CN1Cc1ccccc1 (stereo not given),"inconclusive: 15.8 µM [inhibitor, single point]"
13,O=C(Cc1ccc(Cl)cc1)N1C[C@@H](CO)[C@H](c2ccccn2)C1,inactive
14,COc1cc2c(cc1CCc1ccccc1)N(C(=O)c1ccn(C)n1)CC21CCN(C(C)=O)CC1,active: 10 µM
15,CN(C(=O)Cn1nc2n(c1=O)CCCCC2)C1CCCCC1,inactive
16,CC(C)c1ccc(NC(=O)c2ccc3c(c2)CCN3S(=O)(=O)c2ccccc2)cc1,active: 8.91 µM
17,CC(=O)N1C[C@@H]2CCCN3CCC[C@@H]([C@H]23)[C@H]1CCCC(=O)NCc1ccc(N2CCN(C)CC2)cc1,"inconclusive: 7.94 µM [inhibitor, partial curve, poor fit]"
18,COc1cc2c(cc1CN1CCC3(CCCNC3)C1)OCCCO2 (stereo not given),inactive
19,Cc1ccc(C(=O)NCc2nnc3c(-c4nc(C)no4)cccn23)cc1,"inconclusive: 3.98 µM [inhibitor, partial curve, poor fit]"
20,Cc1cc(F)ccc1S(=O)(=O)Nc1ccc2oc3c(c2c1)CC(C)CC3 (stereo not given),"inconclusive: 17.8 µM [inhibitor, single point]"
21,Cc1cccc(C2C=C(c3ccc(C)c(C)c3)Nc3nnnn32)c1 (stereo not given),active: 11.2 µM
22,CCOc1ccccc1C(=O)NC1(C(F)(F)F)NC(=O)N(CCc2ccc(OC)c(OC)c2)C1=O (stereo not given),"inconclusive: 17.8 µM [inhibitor, single point]"

row,SMILES,Potency
1,Cc1noc(C)c1CC(=O)N1[C@@H]2CC[C@H]1CC(NC(=O)c1ccc(F)cc1)C2 (stereo not given in full),inactive
2,COc1ccccc1-n1cc(-c2ccnc(N3CCCN(C(C)=O)CC3)n2)cn1,"inconclusive: 11.2 µM [inhibitor, single point]"
3,COc1cccc(CN2CCCC(NC(=O)NCc3cccs3)C2)c1 (stereo not given),"inconclusive: 11.2 µM [inhibitor, single point]"
4,COc1ccccc1N1CCN(C(=O)c2cn(CC(C)C)c(=O)c3c2c2ccccc2n3C)CC1,active: 7.94 µM
5,Cc1nc(-c2ccc(F)cc2)n(CC(=O)Nc2ccc(F)c(Cl)c2)c(=O)c1CCO,"inconclusive: 5.01 µM [inhibitor, partial curve, poor fit]"
6,O=C(Nc1ccccn1)[C@@H]1C[C@@H](c2ccc(F)cc2)N(Cc2ccccc2)C1,"inconclusive: 1.58 µM [inhibitor, full curve, poor fit]"
7,O=C(Nc1cccc(F)c1)N1CCCC1c1nc(C2CCOCC2)no1 (stereo not given),inactive
8,NC(=O)[C@@H](Cc1ccccc1)NC(=O)[C@@H]1C[C@@H](NC(=O)c2cnccn2)CCN1C(=O)CSCC(=O)O,inactive
9,COc1ccc(CNC(=O)Cn2c(-c3ccc(Cl)cc3)nc(C)c(CCO)c2=O)cc1,inactive
10,COc1ccc(C(=O)N2CCCC(c3noc(COc4ccccc4)n3)C2)cc1 (stereo not given),"inconclusive: 10 µM [inhibitor, single point]"
11,Cc1oc2c(c1C(=O)NCCCN1CCCCC1)CN(Cc1ccccc1)CC2,"inconclusive: 1.12 µM [inhibitor, full curve]"
12,O=C(NC1C[C@H]2CC[C@@H](C1)N2C(=O)Cc1ccc(Cl)cc1)c1ccncc1 (stereo not given in full),"inconclusive: 17.8 µM [inhibitor, single point]"
13,Cc1ccc2c(c1)c(C(=O)N1CCC3(CCNC(=O)CC3)CC1)nn2C,"inconclusive: 0.282 µM [inhibitor, full curve, poor fit]"
14,Cc1ccsc1CN(Cc1cn(-c2ccccc2)nn1)C1CC1,"inconclusive: 15.8 µM [inhibitor, partial curve, poor fit]"
15,COc1cccc2c1OCC(C(=O)NCCc1noc(-c3ccccc3)n1)C2 (stereo not given),"inconclusive: 3.98 µM [inhibitor, single point]"
16,CC(=O)c1ccc(N2CCN(C(=O)C3CCN(S(=O)(=O)c4c(C)noc4/C=C/c4ccc(C)cc4)CC3)CC2)cc1,"inconclusive: 8.91 µM [inhibitor, partial curve, poor fit]"
17,O=C(Cc1c[nH]c2ccccc12)N1CCc2c(nc(-c3ccc(F)cc3)[nH]c2=O)C1,"inconclusive: 0.891 µM [inhibitor, full curve]"
18,COC(=O)C(=O)N1CC[C@H]2NC(=O)N(c3cccc(OC)c3)C(=O)[C@H]21,inactive
19,Cc1ccc(C(=O)c2c(N)c(-c3nc(-c4ccc5c(c4)OCO5)cs3)c3ccccn23)cc1C,"inconclusive: 12.6 µM [inhibitor, single point]"
20,O=C(Nc1cccc(C(F)(F)F)c1)N[C@H]1CO[C@H]2[C@@H]1OC[C@@H]2n1nnnc1-c1ccc2c(c1)OCO2,inactive
21,Cc1ncsc1CN1CC(N(Cc2ccccc2)C2CCOCC2)C1,"inconclusive: 2.51 µM [inhibitor, partial curve, poor fit]"
